From a compilation of properties of binary mixtures (doi:10.1016/j.molliq.2016.01.096)
The densities may have been worked out from excess volumes.

Experiment: xn = mol fraction of the nth substance listed
Conditions: 100 kPa

Question: For `CCOS(=O)(=O)[O-].CC[n+]1ccn(C)c1` + CCOCCO, which mass density (298.15 K, x2 = 0) is on record?
Answer: 1236.4 kg/m3

Question: And the mass density (318.15 K, x2 = 0)?
Answer: 1222.8 kg/m3

Question: What about the mass density (328.15 K, x2 = 0) of the same compound?
Answer: 1216.2 kg/m3

Question: Which results are given for `CCOCCO` + CCOS(=O)(=O)[O-].CC[n+]1ccn(C)c1?
Answer: mass density (298.15 K, x1 = 0.1202): 1216.9 kg/m3; mass density (298.15 K, x1 = 0.1846): 1205.4 kg/m3; mass density (298.15 K, x1 = 0.3548): 1170.8 kg/m3; mass density (298.15 K, x1 = 0.5511): 1121.4 kg/m3; mass density (298.15 K, x1 = 0.6529): 1089.9 kg/m3; mass density (298.15 K, x1 = 0.9094): 980.4 kg/m3; mass density (298.15 K, x1 = 0.9512): 956.6 kg/m3; mass density (298.15 K, x1 = 1): 925.9 kg/m3; mass density (308.15 K, x1 = 0.1202): 1210 kg/m3; mass density (308.15 K, x1 = 0.1846): 1198.4 kg/m3; mass density (308.15 K, x1 = 0.2326): 1189.2 kg/m3; mass density (308.15 K, x1 = 0.3548): 1163.7 kg/m3; mass density (308.15 K, x1 = 0.4516): 1140.7 kg/m3; mass density (308.15 K, x1 = 0.5511): 1114 kg/m3; mass density (308.15 K, x1 = 0.6529): 1082.3 kg/m3; mass density (308.15 K, x1 = 0.9094): 971.9 kg/m3; mass density (308.15 K, x1 = 0.9512): 947.9 kg/m3; mass density (308.15 K, x1 = 1): 916.9 kg/m3; mass density (318.15 K, x1 = 0.0588): 1213.6 kg/m3; mass density (318.15 K, x1 = 0.1846): 1191.6 kg/m3; mass density (318.15 K, x1 = 0.3548): 1156.6 kg/m3; mass density (318.15 K, x1 = 0.4516): 1133.5 kg/m3; mass density (318.15 K, x1 = 0.5511): 1106.6 kg/m3; mass density (318.15 K, x1 = 0.6529): 1074.6 kg/m3; mass density (318.15 K, x1 = 0.741): 1042.2 kg/m3; mass density (318.15 K, x1 = 0.8273): 1005 kg/m3; mass density (318.15 K, x1 = 0.8658): 986.4 kg/m3; mass density (318.15 K, x1 = 0.9094): 963.3 kg/m3; mass density (318.15 K, x1 = 0.9512): 939.1 kg/m3; mass density (318.15 K, x1 = 1): 907.7 kg/m3; mass density (328.15 K, x1 = 0.1202): 1196.3 kg/m3; mass density (328.15 K, x1 = 0.1846): 1184.6 kg/m3; mass density (328.15 K, x1 = 0.3548): 1149.4 kg/m3; mass density (328.15 K, x1 = 0.4516): 1126.2 kg/m3; mass density (328.15 K, x1 = 0.6529): 1066.9 kg/m3; mass density (328.15 K, x1 = 0.8273): 996.6 kg/m3; mass density (328.15 K, x1 = 0.9094): 954.5 kg/m3; mass density (328.15 K, x1 = 0.9512): 930 kg/m3; mass density (328.15 K, x1 = 1): 898 kg/m3
